Experimental data from the supplement of paper PMC3334620.
The full ranking holds about 33,000 sequences; the median of “E-score (-0.5 to 0.5)” is about -0.016, and the highest 2% start at about 0.31. The list shows a part of the results.

Each sequence was assayed against Cst6 (UniProt P40535) (assay: PBM E-score (8-mer binding enrichment) (E-score (-0.5 to 0.5)); higher = stronger / more preferred TF binding; most listed sequences are background and not binding sites). Details: protein concentration: 200 nM; construct: GST-DNA-binding domain.
Method in brief: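 Yeast transcription factors, full-length or as DNA-binding domains, were expressed with a GST tag using PURExpress in vitro transcription/translation. At about 100-200 nM they were applied to universal all-10-mer Agilent arrays, double-stranded by primer extension on fresh or once-stripped slides. Fluorescent anti-GST detected bound protein, and masliner normalised the scans. E-scores for ungapped eight-base words, pooled with reverse complements, came from the Universal PBM Analysis Suite.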

Sequence	PBM E-score
AGATAAGA	0.263
CTTACAGA	0.00756
AGCGCAGC	-0.302
CAATGCAG	0.0246
CCCGATGA	0.0933
TATGGCGA	0.0467
ATAGAGAA	0.127
CAGTCAAA	-0.00144
ACAGGCAC	-0.145
CGCATAGA	-0.0213
AAACGCTT	0.0101
TCTTAACA	0.15
CACTTGAA	0.0854
AGGAGCAT	-0.0197
AGTTAACC	-0.11
CGAGACGC	-0.142
AATACATT	0.153
TAAAGTGA	0.201
ACGGTAAA	0.129
ACTCCAAG	0.0619
TCACGTCA	0.49
TTTGCAAA	0.0781
GTCTAGCA	-0.205
AGTGGGGC	-0.229
GAAGTGCA	0.125

Sequence	PBM E-score
AAGATAAT	0.151
GCGGTCAA	-0.0742
CCGCGGTC	-0.185
GCCCTAGC	-0.148
CATATTTA	0.192
CCTATGAG	-0.0002
AAGACGTC	0.28
AGATGACG	0.473
AGAGCGAC	-0.119
AAAAACGC	0.172
AACTGTCA	0.12
ACCTGCAG	-0.175
AGTTGCGA	0.0793
CATCTCGC	0.0148
AGCTAGTC	-0.00466
CCCTCGAG	-0.162
ACCCTTGA	-0.0553
ACAATGCG	0.107
ACAGTGTA	-0.0349
GAGTTGCC	-0.0921
ACCTAAGC	0.0311
CGGATACC	-0.138
AGATCAGA	-0.0434
CGTTCTCC	-0.174
AGTAGGAC	-0.136

Sequence	PBM E-score
TGCCACCA	-0.204
ACGTTAAG	0.0326
ACTGATAG	0.00116
AGAAGCAC	-0.0555
ATCTAACG	0.101
GGTGCTCA	-0.188
CGGACCGC	-0.191
AATCTAGA	-0.0962
AGCCGTAC	0.197
CGAGCATC	-0.152
AGAACGAA	0.162
AGCCGACT	-0.232
TCTGGGCA	-0.164
ACAAACAG	0.108
GATAAGAA	0.291
TGAAGACA	0.0428
CGCGCCGA	0.137
CCCGGCCA	-0.315
CAACTAAG	0.0901
GCTGCGCC	-0.151
TTACGTAA	0.493
AGCCCTTC	-0.221
CAGCTGCA	-0.0829
CAAGTCTC	-0.247
ACGTCCAC	0.179

Sequence	PBM E-score
GAACCAAA	-0.0818
AGCATAAA	0.167
AAAGGTAT	0.0448
AGCAGTCG	-0.277
AGCCACCC	-0.295
ACCGAAAT	0.0886
ACGGGAAC	-0.14
AGAAGGAA	-0.175
AGCGTTAA	-0.0501
ACGTGTTA	0.224
AGATAGCA	-0.0144
CTAGGCGA	-0.118
GACTTTAC	-0.0308
ATTGTTCA	0.123
CTGTTTGC	0.0855
CTACATGA	-0.0181
CGATTGAA	0.0857
AGGCCACG	-0.134
TAGCGCGA	0.0472
CGATAGTA	0.0397
TACTATCA	0.11
ACCCGCGT	0.079
GTTTCGCA	-0.0982
CATATACC	-0.0904
GGGGCAGA	-0.0899

Sequence	PBM E-score
ATCAGAGA	-0.00176
CATTCTAA	0.173
AATCACTC	-0.0124
ACGCACCA	0.0811
ACTAAGCA	0.0715
CCTGCTGC	-0.182
GAAGTGTC	0.0547
ACTGAGTG	-0.0254
AGGTTTCA	0.00548
TAATCCAA	0.106
CCCCAAAC	-0.117
CCCTCTCA	-0.404
ACTCGAAG	0.00137
CCCGAGTA	-0.0333
ACCCCCAT	-0.311
ATATGTCC	0.121
CTTCCTAA	-0.0563
CCGCACTA	0.00317
CCGAACCC	-0.31
CGTGGGAG	-0.214
CGCTCGCA	-0.11
AAAACAGA	0.199
ACTCTGTC	0.0818
GCCACGAA	-0.0633
ATACTTTC	0.0214

Sequence	PBM E-score
CTTGATAA	0.0832
GTCAGCAC	0.0528
AGCCAGAT	-0.0349
GGAACTAA	-0.0367
AATTACGC	0.331
CTGACGGC	0.111
ATCACAGA	0.12
AGGCAAAA	0.16
TATACAAA	0.186
GTCGACAA	0.00675
CCAATGAG	-0.152
AGCTGTCG	-0.183
ACAAGTTC	-0.0239
ACCGAGAG	-0.132
AACGGACC	-0.151
CCGAAGAG	-0.146
GGGCGTGA	0.0604
GCCGCTTA	0.221
ACCAGATC	0.034
CATGACCA	0.0978
ATAATCAT	0.344
CCCGTGCG	0.0646
GGCTAGCA	-0.12
AACTTAAT	0.208
ACATAGTA	0.279

Sequence	PBM E-score
AACATATG	0.071
AGGGTAAA	0.0206
CCAATCAA	-0.0938
CTATGCGA	-0.126
CCTTGAGA	-0.204
AAGGAAAA	0.103
CCAGTATC	-0.209
AAGGCGGC	0.177
AGGGCAAT	-0.0329
ACAACGCG	0.102
GAGTGTAA	-0.0945
AGGGAACC	-0.105
CGATCCTA	-0.268
GAGCTCGC	-0.0933
CACGGTTC	-0.09
CCGAATTA	0.0149
AAGCACCC	-0.155
AGAACAGG	-0.0954
CATAATCC	-0.0642
TTGTTAAA	0.016
GCGCAGTA	0.037
GATCGTCC	-0.119
ACTACGTC	0.157
ATATCTTC	0.119
GAATGGGA	-0.236

Sequence	PBM E-score
CTTGCCCC	-0.281
ACATCTGC	-0.0513
GGTGTCGA	-0.157
CTGAGGAC	-0.204
ATCGAACG	0.219
AAATATGA	0.239
ATGACGCC	0.442
ACCTACCT	-0.0974
CCCGCAAC	0.0414
TAGATGAA	0.164
ACGCTAGT	-0.0155
CGGTGGCC	-0.239
AAAAACTG	-0.0947
CGGCAGGA	-0.208
GAGGCTAA	-0.0618
CAACCTCA	-0.0324
CGGAAGAA	0.15
CTACTGCC	-0.203
GCCCTTGA	-0.109
TACGAACA	0.153
AAGCCTCT	-0.163
AAGGTGAG	-0.137
AAGCTGCA	-0.00698
CAAATTGA	-0.0866
GAGTTACC	-0.0903

Sequence	PBM E-score
ACGGTTCA	-0.153
ACGGGCTC	-0.353
AGGCACAA	0.0553
AGAGATCT	-0.106
GAACCGTC	-0.0582
CAGAGCTC	-0.304
GCGCGACA	0.132
GCACCAAC	-0.16
CCCCACTA	-0.239
CAGCATAC	0.11
GAGGTGCC	0.0133
GGGAATGA	0.234
GCCACTTA	0.0597
ATCTATTG	0.169
TACGACTA	-0.023
AGACGCGG	0.0192
GATTGTAA	0.129
AAACGGAG	-0.00734
CAACTTAG	0.107
